Assay results taken from a collection of fitness landscapes (doi:10.1016/j.celrep.2020.107928).
The full ranking holds about 81,000 sequences; the median of “one-hybrid fitness for binding NBS DNA” is about -0.1, and the highest 2% start at about 0.36. Some of the results follow.

B1: Caulobacter ParB omega fusion; a variant is named by its letters at X, in order, B8GW30 (parent)
chain: MESVVVGEPGMSEGRRGLGRGLSALLGEVDAAPAQAPGEQLGGSREAPIEILQRNPDQPRRTFREEDLEDLSNSIREKGVLQPILVRPSPDTAGEYQIVAGERAWRAAQRAGLKTVPIMVRELDDLAVLEIGIIENVQRADLNVLEEALSYKVLMEKFERTQENIAQTIGKSXSHVANXMRLLXLPDEVQSYLVSGELTAXHARAIAAAADPVALAKQIIEGGLSVRETEALARKAPNLSAGKSKGGRPPRVKDTDTQALESDLSSVLGLDVSIDHRGSTGTLTITYATLEQLDDLCNRLTRGI

Variants of: B1
Assay: one-hybrid fitness for binding NBS DNA (the Noc-binding site; scaled: cognate 1, non-cognate 0); higher = stronger binding
Settings: with NBS DNA site
Method in brief: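 On M9-minus-histidine containing 0.1 mM IPTG and 5 mM 3-AT, E. coli USO cells with a HIS3 reporter, site 19 bp from the promoter, grew 48 hours at 37°C to select Caulobacter ParB libraries randomised at four specificity codons. Plasmids from before and after were Illumina-sequenced, with three replicate libraries pooled and variants under 10 reads left out. Fitness is the log change in variant-to-wild-type read ratio, rescaled against cognate and non-cognate.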

one-hybrid fitness for binding NBS DNA, 0.388:
QQDR

one-hybrid fitness for binding NBS DNA, 0.299:
QAKI

one-hybrid fitness for binding NBS DNA, 0.303:
RAMT

one-hybrid fitness for binding NBS DNA, 0.201:
QHRP

one-hybrid fitness for binding NBS DNA, 0.301:
QYCS

one-hybrid fitness for binding NBS DNA, 0.479:
RTKA

one-hybrid fitness for binding NBS DNA, 0.813:
QTGR

one-hybrid fitness for binding NBS DNA, 0.319:
QTCH

one-hybrid fitness for binding NBS DNA, 0.591:
IDNI

one-hybrid fitness for binding NBS DNA, 0.22:
IDRR

one-hybrid fitness for binding NBS DNA, ≤ 0.2:
KSQV
RGGY
FFIS
PTLF
SEYI
TMTW
SVHF
GTKN
RKLQ
CFAG
MINP
ACPF
VVRS
GCNS
LFST
DMVG
NYEF
CLVL
VMWG
LAMC
CVER
ETSN
TYKL
SPSL
RWRG
PGFC
NTYF
GQLC
TVAR
KELS
TEHH
FAEV
VNFY
KECS
TIST
VHSC
SVAE
PYAP
PLEA
MPSM
LVEH
STIP
DFTC
SNTQ
RRLP
RHHK
EQLS
AQPF
HKQT
QSEM
LLLT
ADGF
DPCY
WWNG
RQGG
MSFG
GLDR
WALL
GDPC
QRIQ
CWKS
CDFS
GQSS
SKTL
HWSS
MMPR
IRSC
PPMC
YCDF
QTCM
YWKG
TYSH
AHGI
RLNQ
IRYV
RIYK
RWRF
WPPT
YRKG
WAAL
HPRD
SSMM
ALTI
RRQI
PPVC
TYNY
TPHV
TRAH
AFYC
YTQT
EVHT
DQES
HTQA
TVRH
IQNY
NNTV
LVPN
WTQA
QWHW
PTRW
QTCE
AAMR
LLDL
TEHW
HYDE
CDVS
YRRS
PLYI
FTRF
PILK
LAEG
SIHF
GSFE
VTAM
IISG
TCMS
YPPF
DALF
ELAM
RAWQ
LMYI
SKSE
YWNN
VFNL
HRHA
WNAK
DVTV
LNVG
HWTL
HHRW
CTMT
VLRT
HHWV
PIKN
RMAY
GSRP
PCYT
NSPC
NQRK
QCPK
NKMS
DSNY
QMFG
QLTL
IWTR
ACNH
QYFF
SGRR
THTK
PWFG
IAIR
PLGG
LPDW
IPTP
TLAS
VTKD
VSNS
LIGR
TNMH
PCAR
HCDS
TKVL
QEGH
TRFY
IMSG
FCSS
VLES
LVTI
YPTL
SAQW
RYME
ALGR
LTAQ
VVTA
PVHP
HKGM
ITSD
TAGL
PWKG
QCAK
IKIS
SDKN
NGLS
LMHL
PSRR
LEVR
HFYS
FSTW
RYCE
LTLR
VHNV
QQGN
INGR
DQFS
RIVS
CFHR
CSTS
TGDS
EQRK
KLTY
IRKL
KNSG
RCEW
IHQR
DVSW
YSSY
IQAR
GFFS
IEYS
FRSS
HTQG
CPEM
RTCN
PKWV
ELQR
VAHR
PHNI
VRCD
HYFT
HMRC
LQGF
PNNG
LSTW
MVTE
PWHD
HYHF
AYFG
PGDR
YSNA
YRNE
LKHI
SCDF
EPFI
MCFG
YALL
NGTN
YPIF
NPPI
PLRD
ILTH
RHDA
ADKP
DEGG
RLDT
LSAV
SFRS
LCCR
CFRF
SSQC
DWSY
TVYG
WIKW
GYQS
VLWE
EKNS
EVGP
SKES
EAGR
IVCR
RNDY
ANLM
YKEV
CRFA
CGYD
IPVF
CACG
LPTY
QPIR
EYAI
QWMV
PKWN
RMWY
TPDF
HWCH
SGPF
PMHG
HHQY
ADLR
DLTS
RPPQ
LLRG
HAQT
TSWT
RSAD
QHHV
FAVT
LPAR
AAEG
QMHK
VPGM
PIDS
QSGF
VGLD
PAWH

one-hybrid fitness for binding NBS DNA, 0.973:
QARR

one-hybrid fitness for binding NBS DNA, 0.982:
QAKR
